In article PMC12820563 one finds binding signal (RPM ratio (pull-down/input)) data, which are given here for 32 sequences.

The list shows a part of the results. The list includes weakly bound sequences.

The assay has as its target T1, MBP-FoxP3dN (UniProt Q99JB6).
T1 sequence: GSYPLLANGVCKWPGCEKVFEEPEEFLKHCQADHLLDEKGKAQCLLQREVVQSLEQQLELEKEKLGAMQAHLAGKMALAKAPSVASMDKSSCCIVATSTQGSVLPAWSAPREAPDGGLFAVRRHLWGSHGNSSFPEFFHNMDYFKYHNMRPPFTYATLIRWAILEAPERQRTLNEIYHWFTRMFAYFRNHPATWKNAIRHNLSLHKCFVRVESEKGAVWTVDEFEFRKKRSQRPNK
Put plainly: PD-seq (MBP pull-down with sequencing). The note with it: 20 mM Tris-HCl pH 7.5, 100 mM NaCl, 1.5 mM MgCl2, 0.4 uM protein, 0.1 uM dsDNA library, 30 min, room temperature, amylose pull-down; high values mean tight binding; double strand, one strand shown.
As to “GATGATTGTTCTCCCAGCTGATGAATTAGACGTGTCGAGTAAACAAATTTTCCTAATCTTTCTGTTCAAGCGCCATCTAC”, the binding signal (RPM ratio (pull-down/input)) was 0.628.

As for “GATGATTGTTCTCCCAGCTGATGAATTTGGTGCATCGAGTAAACAAATTTTCCTAATCTTTCTGTTCAAGCGCCATCTAC”, the binding signal (RPM ratio (pull-down/input)) was 1.86.

As to “GATGATTGTTCTCCCAGCTGATGAATTTAGATTATCGAGTAAACAAATTTTCCTAATCTTTCTGTTCAAGCGCCATCTAC”, the binding signal (RPM ratio (pull-down/input)) was 1.31.

Turning to “GATGATTGTTCTCCCAGCTGATGAATTCGCATCGTCGAGTAAACAAATTTTCCTAATCTTTCTGTTCAAGCGCCATCTAC”, the binding signal (RPM ratio (pull-down/input)) is 2.77.

“GATGATTGTTCTCCCAGCTGATGAATTCGTGGTTTCGAGTAAACAAATTTTCCTAATCTTTCTGTTCAAGCGCCATCTAC”: the binding signal (RPM ratio (pull-down/input)) stood at 1.35.

With “GATGATTGTTCTCCCAGCTGATGAATTCGGAATCTCGAGTAAACAAATTTTCCTAATCTTTCTGTTCAAGCGCCATCTAC”, the binding signal (RPM ratio (pull-down/input)) stood at 1.48.

Consider “GATGATTGTTCTCCCAGCTGATGAATTTAGCCCTTCGAGTAAACAAATTTTCCTAATCTTTCTGTTCAAGCGCCATCTAC”, for which the binding signal (RPM ratio (pull-down/input)) is 1.19.

As for “GATGATTGTTCTCCCAGCTGATGAATTTCCTGATTCGAGTAAACAAATTTTCCTAATCTTTCTGTTCAAGCGCCATCTAC”, the binding signal (RPM ratio (pull-down/input)) came to 0.219.

For the sequence “GATGATTGTTCTCCCAGCTGATGAATTTAGCCCATCGAGTAAACAAATTTTCCTAATCTTTCTGTTCAAGCGCCATCTAC”, the binding signal (RPM ratio (pull-down/input)) was determined as 1.28.

Turning to “GATGATTGTTCTCCCAGCTGATGAATTCTGTTCCTCGAGTAAACAAATTTTCCTAATCTTTCTGTTCAAGCGCCATCTAC”, the binding signal (RPM ratio (pull-down/input)) was 0.939.

For “GATGATTGTTCTCCCAGCTGATGAATTCATTCGGTCGAGTAAACAAATTTTCCTAATCTTTCTGTTCAAGCGCCATCTAC”, the binding signal (RPM ratio (pull-down/input)) worked out at 0.256.

For “GATGATTGTTCTCCCAGCTGATGAATTGCCTTTTTCGAGTAAACAAATTTTCCTAATCTTTCTGTTCAAGCGCCATCTAC”, the binding signal (RPM ratio (pull-down/input)) amounted to 1.02.

With “GATGATTGTTCTCCCAGCTGATGAATTTTCCTCCTCGAGTAAACAAATTTTCCTAATCTTTCTGTTCAAGCGCCATCTAC”, the binding signal (RPM ratio (pull-down/input)) is 0.252.

Turning to “GATGATTGTTCTCCCAGCTGATGAATTTTAACCCTCGAGTAAACAAATTTTCCTAATCTTTCTGTTCAAGCGCCATCTAC”, the binding signal (RPM ratio (pull-down/input)) stood at 0.268.

For “GATGATTGTTCTCCCAGCTGATGAATTAGCTACCTCGAGTAAACAAATTTTCCTAATCTTTCTGTTCAAGCGCCATCTAC”, the binding signal (RPM ratio (pull-down/input)) worked out at 0.49.

In the case of “GATGATTGTTCTCCCAGCTGATGAATTAACAGTTTCGAGTAAACAAATTTTCCTAATCTTTCTGTTCAAGCGCCATCTAC”, the binding signal (RPM ratio (pull-down/input)) worked out at 0.424.

“GATGATTGTTCTCCCAGCTGATGAATTCTAGTAGTCGAGTAAACAAATTTTCCTAATCTTTCTGTTCAAGCGCCATCTAC”: the binding signal (RPM ratio (pull-down/input)) was 0.431.

As for “GATGATTGTTCTCCCAGCTGATGAATTGTCCCGGTCGAGTAAACAAATTTTCCTAATCTTTCTGTTCAAGCGCCATCTAC”, the binding signal (RPM ratio (pull-down/input)) was 0.234.

“GATGATTGTTCTCCCAGCTGATGAATTCGCATCTTCGAGTAAACAAATTTTCCTAATCTTTCTGTTCAAGCGCCATCTAC”: the binding signal (RPM ratio (pull-down/input)) is 5.81.

Take “GATGATTGTTCTCCCAGCTGATGAATTATGCTCGTCGAGTAAACAAATTTTCCTAATCTTTCTGTTCAAGCGCCATCTAC”: the binding signal (RPM ratio (pull-down/input)) is 0.988.

With “GATGATTGTTCTCCCAGCTGATGAATTCACGGTGTCGAGTAAACAAATTTTCCTAATCTTTCTGTTCAAGCGCCATCTAC”, the binding signal (RPM ratio (pull-down/input)) was 0.496.

Take “GATGATTGTTCTCCCAGCTGATGAATTCGCGGATTCGAGTAAACAAATTTTCCTAATCTTTCTGTTCAAGCGCCATCTAC”: the binding signal (RPM ratio (pull-down/input)) came to 0.25.

Regarding “GATGATTGTTCTCCCAGCTGATGAATTGTCACCCTCGAGTAAACAAATTTTCCTAATCTTTCTGTTCAAGCGCCATCTAC”, the binding signal (RPM ratio (pull-down/input)) amounted to 0.486.

Take “GATGATTGTTCTCCCAGCTGATGAATTCCTCTGCTCGAGTAAACAAATTTTCCTAATCTTTCTGTTCAAGCGCCATCTAC”: the binding signal (RPM ratio (pull-down/input)) was determined as 0.218.

“GATGATTGTTCTCCCAGCTGATGAATTTGATAATTCGAGTAAACAAATTTTCCTAATCTTTCTGTTCAAGCGCCATCTAC”: the binding signal (RPM ratio (pull-down/input)) turned out to be 0.592.

As to “GATGATTGTTCTCCCAGCTGATGAATTCCCCAGATCGAGTAAACAAATTTTCCTAATCTTTCTGTTCAAGCGCCATCTAC”, the binding signal (RPM ratio (pull-down/input)) was 0.147.

In the case of “GATGATTGTTCTCCCAGCTGATGAATTATACGACTCGAGTAAACAAATTTTCCTAATCTTTCTGTTCAAGCGCCATCTAC”, the binding signal (RPM ratio (pull-down/input)) was 0.401.

As for “GATGATTGTTCTCCCAGCTGATGAATTTTGGACTTCGAGTAAACAAATTTTCCTAATCTTTCTGTTCAAGCGCCATCTAC”, the binding signal (RPM ratio (pull-down/input)) turned out to be 0.475.

Regarding “GATGATTGTTCTCCCAGCTGATGAATTAGGGAAATCGAGTAAACAAATTTTCCTAATCTTTCTGTTCAAGCGCCATCTAC”, the binding signal (RPM ratio (pull-down/input)) was determined as 0.355.

With “GATGATTGTTCTCCCAGCTGATGAATTCCTGATGTCGAGTAAACAAATTTTCCTAATCTTTCTGTTCAAGCGCCATCTAC”, the binding signal (RPM ratio (pull-down/input)) was determined as 0.319.

“GATGATTGTTCTCCCAGCTGATGAATTTTACCTATCGAGTAAACAAATTTTCCTAATCTTTCTGTTCAAGCGCCATCTAC”: the binding signal (RPM ratio (pull-down/input)) came to 0.323.

Consider “GATGATTGTTCTCCCAGCTGATGAATTCACACCCTCGAGTAAACAAATTTTCCTAATCTTTCTGTTCAAGCGCCATCTAC”, for which the binding signal (RPM ratio (pull-down/input)) came out at 0.376.
